Test [1] deals with HSkMC (human skeletal muscle cells). Put plainly: cytotoxicity call (relative viability < 0.9). As to conditions: 10 µM.
The test system of test [2] is HepG2. Put plainly: cytotoxicity call (relative viability < 0.9). As to conditions: 10 µM.
The subject of test [3] is S. aureus RN4220. In words: growth inhibition call (relative growth <= 0.2). As to conditions: 50 µM.

The other results are listed elsewhere or left out.

Consider `CCN1C(=O)[C@@H]2CN(C(C)=O)C[C@@H]2C12CCN(C(=O)COC)CC2`, for which the cytotoxicity call in test [1] and in test [2] was “inactive” in each case. For the same molecule, the growth inhibition call in test [3] is “inactive”.

Turning to `Cc1nc2c(=O)n(C)c(=O)n(C)c2nc1Cl`, the cytotoxicity call in test [1] and in test [2] was “active” each time. For the same molecule, the growth inhibition call in test [3] was “active”.

As to `CS(=O)(=O)N1C[C@H]2COC[C@@]2(C(=O)NCc2ccccn2)C1`, the cytotoxicity call in test [1] and in test [2] was “inactive” throughout. Moreover, the growth inhibition call in test [3] was “inactive”.

For the molecule `O=C(C[C@@H]1CC[C@@H]2[C@H](COC[C@@H](O)CN2C(=O)Nc2ccc(C(F)(F)F)cc2)O1)NCCc1ccncc1`, the cytotoxicity call in test [1] and in test [2] was “inactive” each time. For the same molecule, in test [3], the growth inhibition call is “active”.

Consider `COc1cccc(S(=O)(=O)Nc2ccc3c(c2)C(=O)N(C)C[C@@H](OC)[C@H](C)CN(C(=O)Cc2cccnc2)[C@H](C)CO3)c1`, for which the cytotoxicity call in test [1] and in test [2] was “inactive” throughout. For the same molecule, the growth inhibition call in test [3] was “inactive”.

In the case of `C[C@@H]1CN([C@@H](C)CO)C(=O)c2cccc(NC(=O)Nc3ccc(C(F)(F)F)cc3)c2O[C@H]1CN(C)Cc1ccc(C(F)(F)F)cc1`, the cytotoxicity call in test [1] was “inactive”. Further, the cytotoxicity call in test [2] was “active”. Further, the growth inhibition call in test [3] is “inactive”.

With `Cc1ccc(S(=O)(=O)Nc2cccc3c2O[C@@H](CN(C)Cc2ccc(-c4ccccc4)cc2)[C@@H](C)CN([C@H](C)CO)C3=O)cc1`, the cytotoxicity call in test [1] is “inactive”. The cytotoxicity call in test [2] was “active”. Moreover, the growth inhibition call in test [3] is “inactive”.

On to `C[C@@H]1CN([C@H](C)CO)C(=O)c2cccc(NS(=O)(=O)c3cccs3)c2O[C@@H]1CN(C)S(=O)(=O)c1ccccc1`, for which the cytotoxicity call in test [1] and in test [2] was “inactive” in each case. Also, the growth inhibition call in test [3] is “inactive”.

Consider `Cn1ncc2c(NN3C(=O)CCC3=O)ncnc21`, for which the cytotoxicity call in test [1] and in test [2] was “inactive” throughout. For the same molecule, the growth inhibition call in test [3] was “inactive”.

As to `C[C@H]1CN([C@@H](C)CO)C(=O)c2cc(NC(=O)CCN3CCOCC3)ccc2O[C@H]1CN(C)C(=O)NC1CCCCC1`, the cytotoxicity call in test [1] and in test [2] was “inactive” in each case. Moreover, the growth inhibition call in test [3] is “inactive”.

`COc1ccc(NC(=O)N(C)C[C@@H]2OCc3cn(nn3)CCCC(=O)N([C@@H](C)CO)C[C@@H]2C)c(OC)c1`: the cytotoxicity call in test [1] and in test [2] was “inactive” each time. Besides, the growth inhibition call in test [3] was “inactive”.

For `COc1ccc(CN(C)C[C@@H]2OCCCC[C@@H](C)Oc3ccc(NS(=O)(=O)c4ccccc4)cc3C(=O)N([C@H](C)CO)C[C@@H]2C)cc1`, the cytotoxicity call in test [1] and in test [2] was “inactive” in each case. In test [3], the growth inhibition call is “inactive”.

Consider `Cc1noc(C)c1NC(=O)N(C)C[C@@H]1Oc2ccc(NC(=O)CCCN(C)C)cc2C(=O)N([C@H](C)CO)C[C@@H]1C`, for which the cytotoxicity call in test [1] and in test [2] was “inactive” in each case. Besides, the growth inhibition call in test [3] was “inactive”.

Turning to `C[C@@H]1CN([C@@H](C)CO)C(=O)c2cc(NC(=O)Nc3ccc(C(F)(F)F)cc3)ccc2O[C@H]1CN(C)C(=O)NC1CCCCC1`, the cytotoxicity call in test [1] and in test [2] was “inactive” in each case. For the same molecule, the growth inhibition call in test [3] was “inactive”.

On to `Cc1cc(Cl)ccc1OCCN1CCN(C(=O)[C@H]2CC[C@@H](N)C2)CC1`, for which the cytotoxicity call in test [1] and in test [2] was “inactive” in each case. In addition, the growth inhibition call in test [3] was “inactive”.

With `Cc1noc(C)c1NC(=O)Nc1ccc2c(c1)C(=O)N([C@H](C)CO)C[C@H](C)[C@H](CN(C)Cc1ccc(Cl)c(Cl)c1)O2`, the cytotoxicity call in test [1] and in test [2] was “inactive” throughout. Further, the growth inhibition call in test [3] is “inactive”.

Turning to `CC(C)NC(=O)N(C)C[C@H]1Oc2c(NS(=O)(=O)c3ccccc3)cccc2C(=O)N([C@@H](C)CO)C[C@@H]1C`, the cytotoxicity call in test [1] and in test [2] was “inactive” throughout. Further, the growth inhibition call in test [3] was “inactive”.

Take `C[C@@H]1CN([C@@H](C)CO)C(=O)c2cc(NC(=O)Nc3ccccc3)ccc2O[C@@H](C)CCCCO[C@@H]1CN(C)C(=O)c1ccccc1`: the cytotoxicity call in test [1] and in test [2] was “inactive” each time. In test [3], the growth inhibition call was “inactive”.

In the case of `Cc1ccc(S(=O)(=O)Nc2ccc3c(c2)CC(=O)N([C@@H](C)CO)C[C@H](C)[C@@H](CN(C)S(C)(=O)=O)O3)cc1`, the cytotoxicity call in test [1] and in test [2] was “inactive” throughout. In addition, the growth inhibition call in test [3] is “inactive”.

Regarding `C[C@H](CO)N1C[C@H](C)[C@@H](CN(C)C(=O)c2ccccc2)OCCCC[C@H](C)Oc2ccc(NC(=O)Nc3cccc4ccccc34)cc2C1=O`, the cytotoxicity call in test [1] and in test [2] was “inactive” in each case. In addition, the growth inhibition call in test [3] is “inactive”.

As for `C[C@H]1CCCCO[C@H](CN(C)Cc2ccc(C(F)(F)F)cc2)[C@@H](C)CN([C@@H](C)CO)C(=O)c2cc(NC(=O)Nc3ccccc3)ccc2O1`, the cytotoxicity call in test [1] and in test [2] was “active” throughout. In addition, in test [3], the growth inhibition call is “inactive”.

For `CN1C(=O)[C@@H]2[C@@H]3C[C@H]4[C@@H](O[C@H]1[C@H]42)[C@H]3O`, the cytotoxicity call in test [1] and in test [2] was “inactive” in each case. For the same molecule, in test [3], the growth inhibition call was “inactive”.

Consider `C[C@@H]1CN([C@H](C)CO)C(=O)CCCn2nncc2CO[C@H]1CN(C)C(=O)Nc1ccc(C(F)(F)F)cc1`, for which the cytotoxicity call in test [1] and in test [2] was “inactive” each time. Also, the growth inhibition call in test [3] is “active”.

Take `C[C@@H]1CCCCO[C@H](CN(C)Cc2ccccc2)[C@H](C)CN([C@H](C)CO)C(=O)c2cc(NC(=O)Cc3ccccc3)ccc2O1`: the cytotoxicity call in test [1] and in test [2] was “inactive” throughout. Further, the growth inhibition call in test [3] is “inactive”.

`C[C@@H](O)C#Cc1ccc2c(c1)O[C@H](CN(C)C(=O)C1CCCCC1)[C@@H](C)CN([C@@H](C)CO)S2(=O)=O`: the cytotoxicity call in test [1] and in test [2] was “inactive” throughout. Moreover, the growth inhibition call in test [3] was “inactive”.

In the case of `C[C@@H]1CN([C@@H](C)CO)C(=O)CCCn2nncc2CO[C@H]1CN(C)S(=O)(=O)c1ccc(Oc2ccccc2)cc1`, the cytotoxicity call in test [1] and in test [2] was “inactive” throughout. The growth inhibition call in test [3] is “inactive”.

Take `Cc1ccc(S(=O)(=O)N2C[C@@H](O)COC[C@@H]3O[C@@H](CC(=O)N[C@H]4CCN(Cc5ccccc5)C4)CC[C@H]32)cc1`: the cytotoxicity call in test [1] and in test [2] was “inactive” in each case. Besides, the growth inhibition call in test [3] is “inactive”.

In the case of `CC(C)C#Cc1ccc2c(c1)O[C@@H](CN(C)C(=O)c1cnccn1)[C@@H](C)CN([C@@H](C)CO)S2(=O)=O`, the cytotoxicity call in test [1] and in test [2] was “inactive” throughout. The growth inhibition call in test [3] was “inactive”.

(Values after the antibiotic and cytotoxicity screens of Wong et al. (2023).)
